Here are results for 67 sequences from the supplement of paper PMC10126150.

Sequences with one replicate were seen in a single cluster, so their values are uncertain.

The subject of this data set is ATP. Put plainly: switch fluorescence ratio, 500 uM ATP over buffer (Cy3 cluster intensity, sum of 5 cycles each) (fold (ratio)); higher = stronger signal-on switching upon ATP binding; sequences stand for … in TCGTCGGCAGCGTCAGATGTGTATAAGAGACAGTTTTTTTTTTTTTTTTTTTTTTTTT…TC. As to conditions: aptamer strand: ATP DNA aptamer (quencher-CACCTGGGGGAGTATTGCGGAGGAAGG + anchor), 100 nM annealed; ATP concentration: 500 uM; one replicate. Summed up:
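Clusters with intensities outside 100-1000 RFU were excluded. The remaining Cy3-labelled switching-strand clusters on a modified Illumina MiSeq flow-cell had been annealed to 100 nM quencher-labelled ATP aptamer and imaged in selection buffer, then after 15 min with 500 uM ATP at 22 °C, for five cycles separated by NaOH stripping and re-annealing. The fluorescence ratio, averaged per switch-domain sequence, is each cluster's summed target-cycle Cy3 intensity over its summed buffer-cycle Cy3 intensity.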
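Further: ATP exposure 15 min at 22 °C before imaging.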

For TAGGCCCTAT, the switch fluorescence ratio was 1.01. With GGTGCAAAAC, the switch fluorescence ratio was 2.54.

As to CAATTGCTGC, the switch fluorescence ratio was 0.934. Consider CTTCGTATAT, for which the switch fluorescence ratio was found to be 1.77. The same measure for CATGGGTAA: 1; for TACTAACCTA: 1.12. The result for GTGATTGGTA reads 0.982; that for CTTGGTGGTA, 0.957; that for GGCTGCACAG, 1.02. As for GTGTCGGCTT, the switch fluorescence ratio is 0.984.

For GGCCAATCCC, the switch fluorescence ratio worked out at 1.07. The result for CTGGAAGGGA reads 1.02. The result for AAGCAGGAAA reads 1.02; that for GTTGGAGTG, 0.992; that for GCGACTGGGT, 0.962. The result for CATCAGCGTT reads 1.28; that for GCCGCTTTGG, 0.981; that for AACACCCGTT, 0.956. Turning to ATCCGGTCGT, the switch fluorescence ratio worked out at 0.977. As to ATGCATCTCG, the switch fluorescence ratio was 0.969. The result for TACCCTTGAT reads 1.01; that for ATGGTCCGTT, 0.996; that for CAAAGAGAT, 0.994.

In the case of GGTATCTCGC, the switch fluorescence ratio was 1.02.

With ACGCGCATAT, the switch fluorescence ratio amounted to 1.28.

With TAGATGTCGG, the switch fluorescence ratio was 1.

CGCCTCAGGA: the switch fluorescence ratio was found to be 1.06.

Regarding ACTGCCCGGA, the switch fluorescence ratio turned out to be 1.06. The result for TCGAATTTGA reads 0.979; that for GGAACTGCCC, 1.15.

For the sequence CATCTGAGGT, the switch fluorescence ratio worked out at 0.996. The same measure for GATTGAATGT: 0.974. In the case of GATGTTCGAT, the switch fluorescence ratio is 1.02.

Take TGAATTGACG: the switch fluorescence ratio was 0.99. The same measure for TTCAGTAT: 1.1. For ACGAACTATT, the switch fluorescence ratio was 1.29. Take GATTTGTTGC: the switch fluorescence ratio turned out to be 0.984. The result for GATTGACTGG reads 0.988; that for TCTGTTCCGT, 0.973; that for CGGACTACGG, 1.1.

With GGTTTGTATA, the switch fluorescence ratio stood at 0.936.

For AGTATATT, the switch fluorescence ratio amounted to 0.978. The result for TCGATGGTTC reads 0.96; that for TGCTAGGACT, 1; that for AAATCTTGGG, 1. The same measure for CCGCGGCCAT: 1.56; for AGGAATATGC: 0.984.

Consider AAATACGTTC, for which the switch fluorescence ratio turned out to be 0.987. The same measure for AGGCGATTCA: 1.02; for GCTGCATGTT: 1.06; for TGGTTGGTAA: 0.974. The same measure for TACCACGCAA: 4.62; for CCAGGTTCAC: 0.99; for AGTTCGCGG: 0.971. The same measure for TTCCTACAGC: 1.61; for GTTGGCGTGG: 1; for CAAACCGGAA: 1.39.

As for GACTTCAAAA, the switch fluorescence ratio was 1.01. With ACCAGGTTCA, the switch fluorescence ratio came out at 1.05.

Turning to GTGTTACGT, the switch fluorescence ratio turned out to be 1.01. On to AATGTCTTAG, for which the switch fluorescence ratio worked out at 1.01.

GGGGGAGCTC: the switch fluorescence ratio was 1.05.

As to TCCCGGCAAA, the switch fluorescence ratio stood at 3. The same measure for CACCCGGTTT: 1.04. With AAACGTGCTG, the switch fluorescence ratio was 1.05. The same measure for TTTAAGCTA: 1.01.

In the case of AGTCAGGAAA, the switch fluorescence ratio is 1.
